The supplement of paper PMC10326071
± gives the standard deviation of the averaged measurements. This is one part of the list. Repeats are few or missing, and single values can be far off.

Tested on: SARS-CoV-2 nsp3 SARS-unique domain core (SUD-core, nsp3 residues 413-676)
Experiment: dissociation rate constant koff (BLI); higher = faster dissociation
Conditions: 100 µM; 25 °C
Method: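 Primary BLI (Octet RED96e) screen of MedChemExpress Nucleotide Compound and Kinase Inhibitor libraries (1770 compounds) against biotinylated SARS-CoV-2 SUD-core on SSA biosensors. Each compound was tested once at 100 uM in PBS pH 7.4, 1% DMSO; 150 s association, 180 s dissociation, 25 C. Kd and koff are apparent values from single-concentration 1:1 fits. Only fits with full R^2 >= 0.9 are kept; fits at the software floor (<1e-12 M, <1e-7 /s) and placeholder values are excluded.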

| Compound | dissociation rate constant koff [s⁻¹] |
| --- | --- |
| COc1cc2c(N3CCN(C(=O)Nc4ccc(OC(C)C)cc4)CC3)ncnc2cc1OCCCN1CCCCC1 | 0.039 |
| Nc1nn2cc(F)cnc2c1C(=O)Nc1cncc(F)c1N1CCC(C(=O)N2CCN(C3COC3)CC2)CC1 | 0.0417 |
| O=c1[nH]cnc2c1ncn2[C@@H]1O[C@H](CO)[C@@H](O)[C@H]1O | 0.0139 |
| Cc1cc(-c2cc(O)ccc2Cl)cc2nnc(Nc3ccc(OCCN4CCCC4)cc3)nc12 | 0.00325 |
| [N-]=[N+]=N[C@@H]1[C@H](O)[C@@H](n2ccc(=O)[nH]c2=O)O[C@H]1CO | 0.0189 |
| COc1ncc(-c2ccc3nccc(C#CCN4CCN(S(C)(=O)=O)CC4)c3c2)cc1NS(=O)(=O)c1ccc(F)cc1F | 0.0971 |
| CCOc1nc(Nc2ccc(C(=O)N3CCOCC3)cc2OC)nc2[nH]ccc12 | 0.724 |
| Cn1cnc([N+](=O)[O-])c1Sc1ncnc2nc[nH]c12 | 0.316 ± 0.39 |
| NC(=O)c1ccc(-c2nc(-c3ccc4c(c3)OCCO4)c(-c3ccccn3)[nH]2)cc1 | 0.0722 |
| Nc1ncnc2c1ncn2C1CCCO1 (stereo not given) | 0.0139 |
| Nc1ncnc2c1c(-c1cccc(OCc3ccccc3)c1)cn2C1CC(CN2CCC2)C1 (stereo not given) | 0.0271 |
| Cc1c(Br)c(Br)c2c3c1nc(N1CCNCC1)n3CCC2 | 0.0644 |
| Cc1noc(C)c1-c1ccc(-c2cc(C(N)=O)c(NC(N)=O)s2)c(O[C@H]2CCNC2)c1 | 0.5 |
| COc1cc2c(cc1OC)-c1[nH]nc(Nc3cccc(F)c3)c1C2 | 0.226 |
| NC(=O)Nc1sc(-c2ccc(F)cc2)cc1C(N)=O | 0.772 |
| COc1cc2nc(C)nc(N[C@H](C)c3cc(N)cc(C(F)(F)F)c3)c2cc1O[C@H]1CCOC1 | 1.08 |
| CC(C)n1c(=O)n(C)c2cnc3cc(F)c(-c4ccc(OCCCN5CCCCC5)nc4)cc3c21 | 0.0565 |
| Nc1ccn([C@@H]2O[C@H](CO)[C@@H](O)[C@H]2O)c(=O)n1 | 0.0396 |
| N#C/C(=C\c1ccc2oc(=O)[nH]c2c1)C(=O)c1ccc(O)c(O)c1 | 0.0133 |
| O=c1cc(N2CCOCC2)oc2c(-c3ccc4c(c3)OCCO4)csc12 | 0.358 |

| Compound | dissociation rate constant koff [s⁻¹] |
| --- | --- |
| Cn1cnc([N+](=O)[O-])c1C[N+](C)(C)C/C=C/C(=O)Nc1cc2c(Nc3ccc(Cl)c(Br)c3)ncnc2cn1 | 0.116 |
| O=C(Nc1cccc(C(F)(F)F)c1)c1cccc2cc(Oc3cc(CO)ncn3)ccc12 | 0.0328 |
| CCn1cc(-c2ccc3c(c2)CCN3C(=O)Cc2cccc(OC(F)(F)F)c2)c2c(N)ncnc21 | 0.0488 |
| CC(CCc1ccccn1)(CCc1ccccn1)C(=O)c1ccccc1 | 0.0976 |
| CNC(=O)c1nn(C)c2c1C(C)(C)Cc1cnc(Nc3ccc(N4CCN(C)CC4)cc3)nc1-2 | 0.358 |
| Cc1[nH]c(/C=C2\C(=O)Nc3ccc(F)cc32)c(C)c1C(=O)NCCN1CCCC1 | 1.33 |
| CN(C)Cc1cccc(N=C(c2ccccc2)c2c(O)[nH]c3cc(C(N)=O)ccc23)c1 | 0.0552 |
| CNC(=O)[C@H]1O[C@@H](n2cnc3c(NCc4cccc(I)c4)nc(Cl)nc32)[C@H](O)[C@@H]1O | 0.481 |
| O=C(Nc1ccc(OC(F)(F)Cl)cc1)c1cnc(N2CC[C@@H](O)C2)c(-c2ccn[nH]2)c1 | 0.268 |
| Cc1nc2c(-c3cnc(N)nc3)nc(N3CCOCC3)nc2n1C(C)C | 0.553 |
| NC(=O)c1ncn([C@@H]2O[C@H](CO)[C@@H](O)[C@H]2O)c1O | 0.0126 |
| CC(C)(C)Cn1c(N)nc2ccc(-c3[nH]c(C(C)(C)C)nc3-c3ccc(F)cc3)nc21 | 0.365 |
| CCCc1cc(=O)[nH]c(=S)[nH]1 | 0.0134 |
| c1cc(Nc2cc(C3CC3)[nH]n2)nc(Nc2ccc3nc[nH]c3c2)n1 | 0.113 |
| COc1cc2nnc(C(N)=O)c(Nc3ccc(C)cc3F)c2cc1N1CCN(CCO)CC1 | 0.0885 |
| CN(C)C/C=C/C(=O)Nc1cccc(C(=O)Nc2cccc(Nc3ncc(Cl)c(-c4c[nH]c5ccccc45)n3)c2)c1 | 0.0231 |
| Nc1ncnc2c1ncn2[C@H]1CC[C@@H](CO)O1 | 0.0151 |
| COc1ccc(-c2nc(N3CCOCC3)c3sc(CN(C)c4ncc(C(=O)NO)cn4)cc3n2)cn1 | 0.111 |
| Cc1nc(Nc2ncc(C(=O)Nc3cc(NC(=O)c4cccc(C(F)(F)F)c4)ccc3C)s2)cc(N2CCN(CCO)CC2)n1 | 0.0178 |
| O=C(O)[C@H]1O[C@@H](Oc2cc3oc(-c4ccc(O)cc4)cc(=O)c3c(O)c2O)[C@H](O)[C@@H](O)[C@@H]1O | 0.103 |
